Results reported in publication PMC9590495.
Results are given in words; binding and its absence hold for the method and conditions named. For some assays here: Binding seen in cells or lysates may run through a third protein. Some binding calls cover weakened binding; strength is not graded here. For some assays here: Sequences can lack the tags named with a protein. Blank lines part the entries; values can stand above or below the binder they belong to.

Amino acid sequences for entries named in this document (tags omitted).
UniProt Q9SXZ2: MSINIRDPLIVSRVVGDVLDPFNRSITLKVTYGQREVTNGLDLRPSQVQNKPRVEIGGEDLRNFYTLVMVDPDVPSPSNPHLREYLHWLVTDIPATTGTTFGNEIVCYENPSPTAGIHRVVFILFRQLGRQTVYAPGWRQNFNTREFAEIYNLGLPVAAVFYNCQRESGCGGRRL
UniProt Q39057: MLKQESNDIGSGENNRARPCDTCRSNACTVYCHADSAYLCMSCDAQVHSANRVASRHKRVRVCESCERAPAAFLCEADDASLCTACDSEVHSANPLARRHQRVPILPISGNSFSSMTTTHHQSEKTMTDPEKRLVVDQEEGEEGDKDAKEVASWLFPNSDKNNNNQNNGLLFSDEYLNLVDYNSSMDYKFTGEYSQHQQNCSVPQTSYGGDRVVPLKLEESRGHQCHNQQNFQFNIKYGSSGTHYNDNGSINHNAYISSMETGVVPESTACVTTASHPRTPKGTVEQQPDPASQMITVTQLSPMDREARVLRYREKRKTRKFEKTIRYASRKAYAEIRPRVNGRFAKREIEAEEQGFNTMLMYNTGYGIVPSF

Legend:
[1] = target: T1, Nuclear Factor YB3 (yeast two-hybrid fusion) (Arabidopsis thaliana) (UniProt O23310); assay: two-hybrid; Matchmaker GAL4 Two-Hybrid System 3 (Clontech), pGADT7 and pGBKT7 fusions in yeast strain AH109; growth on selective media lacking Leu, Trp, His and Ade (methods; the legend of Fig. 1 says lacking Trp, Leu and His)
T1 sequence: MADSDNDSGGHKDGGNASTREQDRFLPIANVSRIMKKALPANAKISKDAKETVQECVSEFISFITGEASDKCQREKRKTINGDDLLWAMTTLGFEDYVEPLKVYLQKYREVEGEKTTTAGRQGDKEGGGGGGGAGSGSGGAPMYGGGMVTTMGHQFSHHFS

[2] = target: FLOWERING LOCUS T (yeast two-hybrid fusion) (Arabidopsis thaliana) (UniProt Q9SXZ2); assay: as above
[3] = target: CONSTANS (yeast two-hybrid fusion) (Arabidopsis thaliana) (UniProt Q39057); assay: as above
[4] = target: T2, Nuclear Factor YC9 (yeast two-hybrid fusion) (Arabidopsis thaliana) (UniProt Q8L4B2); assay: as above
T2 sequence: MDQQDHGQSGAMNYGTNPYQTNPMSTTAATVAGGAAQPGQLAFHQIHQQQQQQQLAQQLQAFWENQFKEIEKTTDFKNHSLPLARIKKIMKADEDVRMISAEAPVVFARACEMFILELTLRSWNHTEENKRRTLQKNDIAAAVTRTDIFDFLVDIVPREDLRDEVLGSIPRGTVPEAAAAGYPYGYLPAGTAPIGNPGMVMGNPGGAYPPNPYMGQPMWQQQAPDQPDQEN

[5] = target: T3, Nuclear Factor YC3 (yeast two-hybrid fusion) (Arabidopsis thaliana) (UniProt Q9ZVL3); assay: as above
T3 sequence: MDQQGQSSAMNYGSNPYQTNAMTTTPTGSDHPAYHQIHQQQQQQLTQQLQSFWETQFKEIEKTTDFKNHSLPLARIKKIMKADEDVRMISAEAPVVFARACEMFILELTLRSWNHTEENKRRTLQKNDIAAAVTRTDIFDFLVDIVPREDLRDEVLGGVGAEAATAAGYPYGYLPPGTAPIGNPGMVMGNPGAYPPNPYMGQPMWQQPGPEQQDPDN

[6] = target: T4, Nuclear Factor YB2 (yeast two-hybrid fusion) (Arabidopsis thaliana) (UniProt Q9FGJ3); assay: as above
T4 sequence: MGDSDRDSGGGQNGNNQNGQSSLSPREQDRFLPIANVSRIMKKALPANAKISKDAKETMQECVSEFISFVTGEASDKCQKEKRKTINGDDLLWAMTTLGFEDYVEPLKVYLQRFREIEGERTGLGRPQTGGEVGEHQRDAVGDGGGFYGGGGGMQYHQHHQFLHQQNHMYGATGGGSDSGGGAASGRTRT

[7] = target: T5, Nuclear Factor YC4 (yeast two-hybrid fusion) (Arabidopsis thaliana) (UniProt Q9FMV5); assay: as above
T5 sequence: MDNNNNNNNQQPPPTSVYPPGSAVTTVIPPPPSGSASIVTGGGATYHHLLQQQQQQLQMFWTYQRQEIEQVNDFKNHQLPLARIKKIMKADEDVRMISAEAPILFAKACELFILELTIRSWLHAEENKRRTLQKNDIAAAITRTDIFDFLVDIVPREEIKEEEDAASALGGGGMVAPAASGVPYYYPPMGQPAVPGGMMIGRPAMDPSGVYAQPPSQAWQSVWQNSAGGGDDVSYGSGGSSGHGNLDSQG

[8] = target: T6, NF-YB3 fused to nEYFP (Arabidopsis thaliana) (UniProt O23310); assay: split reporter; BiFC with nEYFP and cEYFP fusions co-expressed transiently in Arabidopsis mesophyll protoplasts; EYFP fluorescence imaged within 12-18 h by confocal microscopy
T6 sequence: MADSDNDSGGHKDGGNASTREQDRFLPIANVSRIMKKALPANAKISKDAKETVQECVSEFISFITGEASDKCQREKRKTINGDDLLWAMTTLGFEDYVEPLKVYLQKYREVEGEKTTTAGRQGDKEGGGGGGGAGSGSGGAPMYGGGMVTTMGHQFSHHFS

[9] = target: T7, NF-YC3-nEYFP (Arabidopsis thaliana) (UniProt Q9ZVL3); assay: as above
T7 sequence: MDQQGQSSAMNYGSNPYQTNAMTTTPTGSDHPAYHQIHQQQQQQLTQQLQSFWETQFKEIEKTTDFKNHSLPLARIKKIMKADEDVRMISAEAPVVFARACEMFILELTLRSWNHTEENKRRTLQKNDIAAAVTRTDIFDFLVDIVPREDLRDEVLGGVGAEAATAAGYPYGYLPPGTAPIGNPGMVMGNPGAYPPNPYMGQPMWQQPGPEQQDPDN

[10] = target: T8, NF-YC9 fused to nEYFP (Arabidopsis thaliana) (UniProt Q8L4B2); assay: as above
T8 sequence: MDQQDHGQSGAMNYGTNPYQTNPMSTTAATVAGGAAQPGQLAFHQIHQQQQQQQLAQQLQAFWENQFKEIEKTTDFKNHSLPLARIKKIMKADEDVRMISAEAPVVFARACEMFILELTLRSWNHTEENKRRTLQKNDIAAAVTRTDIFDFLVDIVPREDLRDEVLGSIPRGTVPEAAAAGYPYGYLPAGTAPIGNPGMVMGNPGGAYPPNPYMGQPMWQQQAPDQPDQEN

[11] = target: T9, NF-YC3 (construct of the transient Co-IP) (Arabidopsis thaliana) (UniProt Q9ZVL3); assay: co-IP; plasmid pairs transiently expressed in Arabidopsis mesophyll protoplasts, 12-18 h; total proteins immunoprecipitated with anti-FLAG M2 affinity gel, western blotting
T9 sequence: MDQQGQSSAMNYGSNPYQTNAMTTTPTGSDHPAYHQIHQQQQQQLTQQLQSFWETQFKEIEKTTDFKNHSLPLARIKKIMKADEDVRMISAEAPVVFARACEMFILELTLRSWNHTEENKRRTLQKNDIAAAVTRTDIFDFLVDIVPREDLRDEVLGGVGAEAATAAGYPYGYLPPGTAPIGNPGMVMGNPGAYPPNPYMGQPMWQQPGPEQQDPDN

binding [1]: binds
binding [2]: no binding
binding [3]: no binding
binding [4]: binds
binding [5]: binds
binding [6]: no binding
binding [7]: no binding
B1: PROTEIN ARGININE … 6 (yeast two-hybrid fusion) (enzyme, UniProt Q08A71 1-435)
chain: MQSGGDFSNGFHGDHHRELELEDKQGPSLSSFGRAKKRSHAGARDPRGGLANVLRVSDQLGEHKSLETSESSPPPCTDFDVAYFHSYAHVGIHEEMIKDRARTETYREAIMQHQSLIEGKVVVDVGCGTGILSIFCAQAGAKRVYAVDASDIAVQAKEVVKANGLSDKVIVLHGRVEDVEIDEEVDVIISEWMGYMLLYESMLGSVITARDRWLKPGGLILPSHATLYMAPISHPDRYSHSIDFWRNVYGIDMSAMMQLAKQCAFEEPSVESISGENVLTWPEVVKHIDCKTIKIQELDSVTARYKFNSMMRAPMHGFAFWFDVEFSGPASSPAKNTSETSIASGSSSISPSGEVNQKKRTNPSDALVLSTSPESPPTHWQQTIVYFYDPIDVEQDQVIEGSVTLSQSKENKRFMNIHLEYSSAGRSFVKESVMR

binding [8]: binds
binding [9]: binds
binding [10]: binds
B2: PRMT6-cEYFP (enzyme, UniProt Q08A71 1-435)
chain: MQSGGDFSNGFHGDHHRELELEDKQGPSLSSFGRAKKRSHAGARDPRGGLANVLRVSDQLGEHKSLETSESSPPPCTDFDVAYFHSYAHVGIHEEMIKDRARTETYREAIMQHQSLIEGKVVVDVGCGTGILSIFCAQAGAKRVYAVDASDIAVQAKEVVKANGLSDKVIVLHGRVEDVEIDEEVDVIISEWMGYMLLYESMLGSVITARDRWLKPGGLILPSHATLYMAPISHPDRYSHSIDFWRNVYGIDMSAMMQLAKQCAFEEPSVESISGENVLTWPEVVKHIDCKTIKIQELDSVTARYKFNSMMRAPMHGFAFWFDVEFSGPASSPAKNTSETSIASGSSSISPSGEVNQKKRTNPSDALVLSTSPESPPTHWQQTIVYFYDPIDVEQDQVIEGSVTLSQSKENKRFMNIHLEYSSAGRSFVKESVMR

binding [11]: binds
B3: PRMT6 (construct of the transient Co-IP) (enzyme, UniProt Q08A71 1-435)
chain: MQSGGDFSNGFHGDHHRELELEDKQGPSLSSFGRAKKRSHAGARDPRGGLANVLRVSDQLGEHKSLETSESSPPPCTDFDVAYFHSYAHVGIHEEMIKDRARTETYREAIMQHQSLIEGKVVVDVGCGTGILSIFCAQAGAKRVYAVDASDIAVQAKEVVKANGLSDKVIVLHGRVEDVEIDEEVDVIISEWMGYMLLYESMLGSVITARDRWLKPGGLILPSHATLYMAPISHPDRYSHSIDFWRNVYGIDMSAMMQLAKQCAFEEPSVESISGENVLTWPEVVKHIDCKTIKIQELDSVTARYKFNSMMRAPMHGFAFWFDVEFSGPASSPAKNTSETSIASGSSSISPSGEVNQKKRTNPSDALVLSTSPESPPTHWQQTIVYFYDPIDVEQDQVIEGSVTLSQSKENKRFMNIHLEYSSAGRSFVKESVMR
